Experimental data from the supplement of paper PMC12217912.
This is one part of the list. Sequences were assembled here from the parent chain. Inactive controls read about 0.05.

B1: TEV protease; numbered along this chain (parent)
chain: MGESLFKGPRDYNPISSSICHLTNESDGHTTSLYGIGFGPFIITNKHLFRRNNGTLVVQSLHGVFKVKDTTTLQQHLVDGRDMIIIRMPKDFPPFPQKLKFREPQREERICLVTTNFQTKSMSSMVSDTSCTFPSGDGIFWKHWIQTKDGQCGSPLVSTRDGFIVGIHSASNFTNTNNYFTSVPKNFMELLTNQEAQQWVSGWRLNADSVLWGGHKVFMVKPEEPFQPVKEATQL

Variants of: B1
Test: raw area under fraction-flipped curve 0-4 h after induction (AUC4h, not background-subtracted), DNA-recorder readout of cleavage of the substrate (dimensionless); higher = more cleavage of the substrate by the protease variant
Conditions: temperature: 34 °C; time window: 0-4 h after rhamnose induction
Description: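 In vivo DNA recorder in E. coli TOP10(DE3) ΔrhaA at 34 °C. Each TEVp single-site mutant (parent TEVp 0) is paired with a single-site variant of the 7-mer TEVs (canonical ENLYFQ|S). The substrate sits between flexible linkers in a Bxb1-sfGFP-TEVs-SsrA fusion, so cleavage stabilises Bxb1 and speeds flipping of a recombination array, read by NGS. The value is the raw area under the fraction-flipped curve over 0-4 h after rhamnose induction (AUC4h), with ≥20 reads per time point. It is not background-subtracted; inactive controls average about 0.047.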
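Further: Bxb1 expression induced with 0.2% (w/v) L-rhamnose at OD600 near 0.5, cultures sampled hourly, flipped fraction per protease–substrate barcode pair counted by paired-end Illumina sequencing.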

| Variant | area with substrate ENLYFQA | area with substrate ENLYFQC | area with substrate ENLYFQD | area with substrate ENLYFQE | area with substrate ENLYFQF | area with substrate ENLYFQG | area with substrate ENLYFQI | area with substrate ENLYFQK | area with substrate ENLYFQL | area with substrate ENLYFQM | area with substrate ENLYFQN | area with substrate ENLYFQR | area with substrate ENLYFQS | area with substrate ENLYFQT | area with substrate ENLYFQV | area with substrate ENLYFQW | area with substrate ENLYFQY | area with substrate ENLYFQH | area with substrate ENLYFQP | area with substrate ENLYFQQ |
| --- | --- | --- | --- | --- | --- | --- | --- | --- | --- | --- | --- | --- | --- | --- | --- | --- | --- | --- | --- | --- |
| N24L | 0.0726 | 0.127 | 0.0675 | 0.0414 | 0.0968 | 0.0756 | 0.0599 | 0.0619 | 0.0535 | 0.0905 | 0.0736 | 0.0433 | 0.102 | 0.0675 | 0.0667 | 0.0742 | 0.0834 |  |  |  |
| N13D | 0.0814 | 0.101 | 0.076 |  | 0.107 | 0.114 | 0.046 | 0.0679 | 0.0602 | 0.0787 | 0.103 | 0.0648 | 0.0986 | 0.0713 | 0.0444 | 0.0419 | 0.0744 | 0.0748 | 0.0553 |  |
| N13A | 0.0943 | 0.092 | 0.0535 |  | 0.0772 | 0.0877 | 0.0507 | 0.0691 | 0.0688 | 0.0897 | 0.0667 | 0.0647 | 0.0942 | 0.0744 | 0.0624 |  | 0.0595 | 0.0839 | 0.0595 | 0.0666 |
| D11M | 0.0642 | 0.0669 | 0.0626 |  | 0.0574 | 0.0656 | 0.0353 |  | 0.0624 | 0.0524 | 0.0624 | 0.051 | 0.0645 | 0.0539 |  | 0.0561 | 0.0566 |  | 0.0733 |  |
| S16W | 0.133 | 0.117 | 0.0612 |  | 0.077 | 0.099 |  | 0.0593 | 0.0582 | 0.112 | 0.0677 |  | 0.103 | 0.0664 | 0.0431 | 0.0751 |  |  |  | 0.0769 |
| Y12D | 0.0966 | 0.102 |  |  | 0.0594 | 0.0931 | 0.0557 | 0.0743 | 0.0601 | 0.0955 |  | 0.062 | 0.1 | 0.0597 | 0.0606 | 0.076 | 0.0756 | 0.0778 | 0.0629 |  |
| Y12E | 0.106 | 0.145 | 0.0864 | 0.0762 |  |  |  | 0.038 | 0.0789 | 0.0786 | 0.0829 | 0.06 | 0.0983 | 0.0684 |  | 0.0637 | 0.0792 | 0.101 | 0.072 |  |
| I15Y | 0.105 | 0.0999 |  |  | 0.0475 | 0.0957 | 0.0597 | 0.0598 | 0.0613 | 0.098 | 0.0843 | 0.0588 | 0.0984 | 0.0724 | 0.0748 | 0.0629 | 0.0793 | 0.0909 | 0.0574 | 0.0676 |
| I15W | 0.0866 | 0.101 | 0.0831 |  | 0.0718 | 0.1 | 0.0642 | 0.0549 | 0.0641 | 0.0832 | 0.0626 | 0.0441 | 0.0934 | 0.0653 | 0.0609 | 0.0777 |  | 0.0549 | 0.06 | 0.0743 |
| I15A | 0.0972 | 0.0788 | 0.0634 | 0.0674 | 0.0698 | 0.0849 | 0.0532 | 0.0453 | 0.0505 | 0.0735 | 0.0746 | 0.059 | 0.0923 | 0.0608 |  |  | 0.0736 | 0.0803 |  | 0.0671 |
| P14R | 0.129 | 0.128 |  |  |  | 0.105 | 0.0629 | 0.0654 | 0.0647 | 0.0886 | 0.0837 |  | 0.108 | 0.0587 | 0.0612 |  | 0.0822 | 0.0966 | 0.0811 |  |
